According to the supplement of paper PMC10126150:
Sequences with one replicate were seen in a single cluster, so their values are uncertain.

Each sequence was assayed on ATP (assay: switch fluorescence ratio, 500 uM ATP over buffer (Cy3 cluster intensity, sum of 5 cycles each) (fold (ratio)); higher = stronger signal-on switching upon ATP binding; sequences stand for … in TCGTCGGCAGCGTCAGATGTGTATAAGAGACAGTTTTTTTTTTTTTTTTTTTTTTTTT…TC). Details: aptamer strand: ATP DNA aptamer (quencher-CACCTGGGGGAGTATTGCGGAGGAAGG + anchor), 100 nM annealed; ATP concentration: 500 uM; one replicate.
How it was run: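 Five buffer/ATP imaging cycles were run on Cy3-labelled switching-strand clusters on a modified Illumina MiSeq flow-cell, with NaOH stripping and re-annealing between cycles. In each cycle, clusters annealed to 100 nM quencher-labelled ATP aptamer were imaged in selection buffer, then after 15 min with 500 uM ATP at 22 °C. Per cluster, the fluorescence ratio is summed target-cycle over summed buffer-cycle Cy3 intensity, averaged per switch-domain sequence. Only clusters within 100-1000 RFU were kept.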
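Further: ATP exposure 15 min at 22 °C before imaging.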

Q: Which switch fluorescence ratio does the source give for TAGTTTTTT here?
A: 1.01

Q: For TATAAAATCC, which switch fluorescence ratio is on record?
A: 1.02

Q: How did the switch fluorescence ratio turn out when TATAAAGATG was run?
A: 1.01

Q: For TATAAAGCAA, which switch fluorescence ratio is on record?
A: 1.46

Q: For TATAAAGTCA, which switch fluorescence ratio is on record?
A: 0.985

Q: TATAAAGTGT was tested. Which switch fluorescence ratio did it give?
A: 0.985

Q: For TATAAATATA, which switch fluorescence ratio is on record?
A: 0.964

Q: How did the switch fluorescence ratio turn out when TATAACACTG was run?
A: 1.04

Q: TATAAGAGGA was tested. Which switch fluorescence ratio did it give?
A: 0.975

Q: How did the switch fluorescence ratio turn out when TATAAGCAGC was run?
A: 1.04

Q: With TATAAGCGAA as the sequence, how does the switch fluorescence ratio read?
A: 0.989

Q: How did the switch fluorescence ratio turn out when TATAAGCTGG was run?
A: 0.997

Q: For TATAAGGAAT, which switch fluorescence ratio is on record?
A: 0.975

Q: With TATAATGCAC as the sequence, how does the switch fluorescence ratio read?
A: 1.09

Q: TATAATGGGA was tested. Which switch fluorescence ratio did it give?
A: 1.02

Q: For TATACAATT, which switch fluorescence ratio is on record?
A: 1.03

Q: TATACACCGA was tested. Which switch fluorescence ratio did it give?
A: 1.05

Q: For TATACACTGT, which switch fluorescence ratio is on record?
A: 1.03

Q: For TATACATTC, which switch fluorescence ratio is on record?
A: 1

Q: With TATACCCTAC as the sequence, how does the switch fluorescence ratio read?
A: 1.29

Q: TATACTCTGG was tested. Which switch fluorescence ratio did it give?
A: 1.01

Q: For TATACTGG, which switch fluorescence ratio is on record?
A: 1

Q: Which switch fluorescence ratio does the source give for TATAGAACAA here?
A: 1.02

Q: How did the switch fluorescence ratio turn out when TATAGACGTG was run?
A: 0.966

Q: For TATAGAGA, which switch fluorescence ratio is on record?
A: 1.03

Q: For TATAGATCAT, which switch fluorescence ratio is on record?
A: 0.98

Q: How did the switch fluorescence ratio turn out when TATAGATCCA was run?
A: 1.01

Q: Which switch fluorescence ratio does the source give for TATAGATTGC here?
A: 0.989

Q: How did the switch fluorescence ratio turn out when TATAGCATGG was run?
A: 1.03

Q: With TATAGCTC as the sequence, how does the switch fluorescence ratio read?
A: 1.02

Q: With TATAGGCTC as the sequence, how does the switch fluorescence ratio read?
A: 0.989

Q: TATAGGGAAC was tested. Which switch fluorescence ratio did it give?
A: 1.04

Q: With TATAGGTGAT as the sequence, how does the switch fluorescence ratio read?
A: 1.05

Q: For TATAGTAGCC, which switch fluorescence ratio is on record?
A: 1

Q: For TATATAATTA, which switch fluorescence ratio is on record?
A: 1.02

Q: With TATATCAGTA as the sequence, how does the switch fluorescence ratio read?
A: 1.05

Q: TATATCATAT was tested. Which switch fluorescence ratio did it give?
A: 1

Q: Which switch fluorescence ratio does the source give for TATATCATTT here?
A: 1.01

Q: How did the switch fluorescence ratio turn out when TATATCTTAA was run?
A: 0.979

Q: Which switch fluorescence ratio does the source give for TATATGCGGC here?
A: 0.922

Q: With TATATGGAGT as the sequence, how does the switch fluorescence ratio read?
A: 0.962

Q: Which switch fluorescence ratio does the source give for TATATGTGGA here?
A: 1

Q: With TATATTAAAA as the sequence, how does the switch fluorescence ratio read?
A: 1

Q: TATATTATAA was tested. Which switch fluorescence ratio did it give?
A: 1.01

Q: How did the switch fluorescence ratio turn out when TATCAATGCA was run?
A: 1.04

Q: TATCATAAAC was tested. Which switch fluorescence ratio did it give?
A: 1.03

Q: TATCATAGAC was tested. Which switch fluorescence ratio did it give?
A: 0.99

Q: With TATCATGCGG as the sequence, how does the switch fluorescence ratio read?
A: 0.978

Q: With TATCCCAATT as the sequence, how does the switch fluorescence ratio read?
A: 1.09

Q: TATCCGCTAT was tested. Which switch fluorescence ratio did it give?
A: 4.98

Q: TATCCTAGG was tested. Which switch fluorescence ratio did it give?
A: 0.996

Q: How did the switch fluorescence ratio turn out when TATCGAGGCA was run?
A: 1.04

Q: For TATCGGCTTG, which switch fluorescence ratio is on record?
A: 1.02

Q: TATCGGGAT was tested. Which switch fluorescence ratio did it give?
A: 0.972

Q: TATCGTTGGC was tested. Which switch fluorescence ratio did it give?
A: 0.927

Q: For TATCTAAAGG, which switch fluorescence ratio is on record?
A: 1.06

Q: With TATCTACAAC as the sequence, how does the switch fluorescence ratio read?
A: 1.05

Q: TATCTCTAAA was tested. Which switch fluorescence ratio did it give?
A: 1.02

Q: TATCTGGCGT was tested. Which switch fluorescence ratio did it give?
A: 0.939

Q: Which switch fluorescence ratio does the source give for TATCTGTAAT here?
A: 1.08

Q: How did the switch fluorescence ratio turn out when TATGAACGGT was run?
A: 0.949

Q: How did the switch fluorescence ratio turn out when TATGAAGCTC was run?
A: 1.04

Q: With TATGACAGAC as the sequence, how does the switch fluorescence ratio read?
A: 1.06

Q: With TATGACTCGA as the sequence, how does the switch fluorescence ratio read?
A: 0.983

Q: TATGACTCTA was tested. Which switch fluorescence ratio did it give?
A: 1.02

Q: How did the switch fluorescence ratio turn out when TATGAGAGTC was run?
A: 1.07

Q: With TATGAGCGTC as the sequence, how does the switch fluorescence ratio read?
A: 1.02

Q: TATGATTCTA was tested. Which switch fluorescence ratio did it give?
A: 1.02

Q: Which switch fluorescence ratio does the source give for TATGCAATCG here?
A: 1.05

Q: With TATGCATGTA as the sequence, how does the switch fluorescence ratio read?
A: 0.939

Q: With TATGCCACAA as the sequence, how does the switch fluorescence ratio read?
A: 1.05

Q: How did the switch fluorescence ratio turn out when TATGCGAAC was run?
A: 1.09

Q: How did the switch fluorescence ratio turn out when TATGCGGAGA was run?
A: 1.03

Q: TATGCTAAAG was tested. Which switch fluorescence ratio did it give?
A: 0.988

Q: How did the switch fluorescence ratio turn out when TATGGATAG was run?
A: 1.01

Q: For TATGGATGGA, which switch fluorescence ratio is on record?
A: 1.03

Q: TATGGCCTGC was tested. Which switch fluorescence ratio did it give?
A: 0.942

Q: TATGGCGAGG was tested. Which switch fluorescence ratio did it give?
A: 1.05

Q: For TATGGCGTGG, which switch fluorescence ratio is on record?
A: 1

Q: With TATGGGGGAA as the sequence, how does the switch fluorescence ratio read?
A: 0.987

Q: TATGGGTAGT was tested. Which switch fluorescence ratio did it give?
A: 1

Q: Which switch fluorescence ratio does the source give for TATGGGTTCG here?
A: 1

Q: Which switch fluorescence ratio does the source give for TATGGTAGCG here?
A: 1.01

Q: Which switch fluorescence ratio does the source give for TATGGTGGTC here?
A: 0.978

Q: How did the switch fluorescence ratio turn out when TATGTAAGCG was run?
A: 0.99

Q: How did the switch fluorescence ratio turn out when TATGTAGCT was run?
A: 1.09

Q: Which switch fluorescence ratio does the source give for TATGTCCTG here?
A: 0.997

Q: How did the switch fluorescence ratio turn out when TATGTCGAAA was run?
A: 1.01

Q: TATGTGCACT was tested. Which switch fluorescence ratio did it give?
A: 0.922

Q: With TATGTGTTCT as the sequence, how does the switch fluorescence ratio read?
A: 1

Q: TATGTTCACT was tested. Which switch fluorescence ratio did it give?
A: 1.01

Q: TATGTTGGTC was tested. Which switch fluorescence ratio did it give?
A: 0.968

Q: With TATGTTTTAC as the sequence, how does the switch fluorescence ratio read?
A: 1.05

Q: For TATTAAACCC, which switch fluorescence ratio is on record?
A: 1.08

Q: With TATTAAATCG as the sequence, how does the switch fluorescence ratio read?
A: 1.02

Q: Which switch fluorescence ratio does the source give for TATTAACGCT here?
A: 0.998

Q: For TATTAAGGT, which switch fluorescence ratio is on record?
A: 1.02

Q: With TATTACAGCG as the sequence, how does the switch fluorescence ratio read?
A: 1.03

Q: For TATTACCTAG, which switch fluorescence ratio is on record?
A: 1.07

Q: Which switch fluorescence ratio does the source give for TATTAGAGAT here?
A: 0.988

Q: Which switch fluorescence ratio does the source give for TATTAGAGCC here?
A: 0.966

Q: With TATTAGCTGA as the sequence, how does the switch fluorescence ratio read?
A: 1.05

Q: For TATTATCCAT, which switch fluorescence ratio is on record?
A: 1.04

Q: TATTATGTGA was tested. Which switch fluorescence ratio did it give?
A: 0.99

Q: With TATTATTG as the sequence, how does the switch fluorescence ratio read?
A: 0.974

Q: For TATTCAAGAG, which switch fluorescence ratio is on record?
A: 1.01

Q: With TATTCACCGG as the sequence, how does the switch fluorescence ratio read?
A: 1

Q: TATTCTGAAG was tested. Which switch fluorescence ratio did it give?
A: 0.989

Q: With TATTGACCTG as the sequence, how does the switch fluorescence ratio read?
A: 0.973

Q: TATTGATCGC was tested. Which switch fluorescence ratio did it give?
A: 0.968

Q: With TATTGATTAA as the sequence, how does the switch fluorescence ratio read?
A: 0.98

Q: How did the switch fluorescence ratio turn out when TATTGCAACT was run?
A: 0.999

Q: TATTGCGATG was tested. Which switch fluorescence ratio did it give?
A: 1.03

Q: With TATTGGACTT as the sequence, how does the switch fluorescence ratio read?
A: 0.998

Q: With TATTGGCCGT as the sequence, how does the switch fluorescence ratio read?
A: 0.964

Q: For TATTGGTAC, which switch fluorescence ratio is on record?
A: 1.02

Q: Which switch fluorescence ratio does the source give for TATTGTAGGC here?
A: 1.01

Q: How did the switch fluorescence ratio turn out when TATTGTGAGG was run?
A: 1

Q: For TATTGTGGA, which switch fluorescence ratio is on record?
A: 0.985

Q: TATTGTGGCG was tested. Which switch fluorescence ratio did it give?
A: 0.979

Q: TATTTAACCC was tested. Which switch fluorescence ratio did it give?
A: 0.989

Q: For TATTTACCAT, which switch fluorescence ratio is on record?
A: 1.06

Q: How did the switch fluorescence ratio turn out when TATTTAGAGC was run?
A: 0.969

Q: How did the switch fluorescence ratio turn out when TATTTAGTG was run?
A: 0.982

Q: Which switch fluorescence ratio does the source give for TATTTCAGTG here?
A: 1.02

Q: Which switch fluorescence ratio does the source give for TATTTCGGAT here?
A: 0.993

Q: For TATTTCTCAT, which switch fluorescence ratio is on record?
A: 0.978

Q: With TATTTGCTGC as the sequence, how does the switch fluorescence ratio read?
A: 0.914

Q: Which switch fluorescence ratio does the source give for TATTTGTAAG here?
A: 0.995

Q: For TATTTTCCAT, which switch fluorescence ratio is on record?
A: 1.01

Q: With TATTTTGGC as the sequence, how does the switch fluorescence ratio read?
A: 1.1

Q: Which switch fluorescence ratio does the source give for TCAAAACATT here?
A: 1.04

Q: With TCAAAATTCA as the sequence, how does the switch fluorescence ratio read?
A: 1.11

Q: How did the switch fluorescence ratio turn out when TCAAACAGAG was run?
A: 1.03

Q: Which switch fluorescence ratio does the source give for TCAAACCGGG here?
A: 1

Q: With TCAAACCTGG as the sequence, how does the switch fluorescence ratio read?
A: 1.17

Q: Which switch fluorescence ratio does the source give for TCAACATAGC here?
A: 0.996

Q: For TCAACCGTGC, which switch fluorescence ratio is on record?
A: 1.56

Q: How did the switch fluorescence ratio turn out when TCAACGGAAA was run?
A: 1.02

Q: TCAACTCCGA was tested. Which switch fluorescence ratio did it give?
A: 1.29

Q: Which switch fluorescence ratio does the source give for TCAACTGTT here?
A: 0.862

Q: Which switch fluorescence ratio does the source give for TCAAGAAGTC here?
A: 0.951

Q: Which switch fluorescence ratio does the source give for TCAAGACTAC here?
A: 1.06

Q: For TCAAGCTTGC, which switch fluorescence ratio is on record?
A: 0.97

Q: Which switch fluorescence ratio does the source give for TCAAGGACCA here?
A: 1.04

Q: For TCAAGGTTCC, which switch fluorescence ratio is on record?
A: 1.06

Q: With TCAAGTATTT as the sequence, how does the switch fluorescence ratio read?
A: 1

Q: With TCAATAAGTC as the sequence, how does the switch fluorescence ratio read?
A: 0.988

Q: For TCAATAGATA, which switch fluorescence ratio is on record?
A: 0.985

Q: How did the switch fluorescence ratio turn out when TCAATCCCGA was run?
A: 1.04

Q: For TCAATCTCGT, which switch fluorescence ratio is on record?
A: 1.01

Q: TCAATG was tested. Which switch fluorescence ratio did it give?
A: 0.993

Q: How did the switch fluorescence ratio turn out when TCAATGGCTC was run?
A: 0.994

Q: Which switch fluorescence ratio does the source give for TCACACACTT here?
A: 1.35
